# Results taken from the supplement of paper PMC4166925.
# ± gives the standard deviation of the averaged measurements. Whole data set: some 33,000 sequences, median “E-score (dimensionless, -0.5 to 0.5)” near -0.046, cut for the highest 2% near 0.36. The list shows a part of the results.
# Tested on: T1, SpTbr T-box DNA-binding domain (GST fusion)
# T1 sequence: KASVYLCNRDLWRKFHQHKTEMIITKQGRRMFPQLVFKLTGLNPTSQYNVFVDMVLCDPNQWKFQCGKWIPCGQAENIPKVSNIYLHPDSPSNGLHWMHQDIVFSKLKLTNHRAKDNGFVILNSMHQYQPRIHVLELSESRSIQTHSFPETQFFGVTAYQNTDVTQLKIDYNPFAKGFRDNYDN
# Test: PBM E-score of 8-mer (E-score (dimensionless, -0.5 to 0.5)); Tbr is Tbrain of the sea star Patiria miniata (Pm) or the sea urchin Strongylocentrotus purpuratus (Sp); higher = stronger binding preference; most listed sequences are background and not binding sites
# Conditions: the construct has about 5 more residues each side
# Summary of the method: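 Each ungapped 8-mer received an enrichment E-score from the Universal PBM Analysis Suite, averaged over duplicate arrays. The proteins were Tbr T-box DNA-binding domains, covering the whole T-box plus about five flanking residues, fused to GST and expressed in BL21 E. coli at 20 °C before glutathione affinity purification. Universal Agilent oligonucleotide arrays were made double-stranded by primer extension and incubated with 200 nM protein in PBS (pH 7.5). The arrays were then scanned and quantified, and every 8-mer was scored from probe intensities.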
row,Sequence,PBM E-score of 8-mer
1,GAGACCGA,-0.0681 ± 0.039
2,GCCTAGGC,-0.117 ± 0.01
3,ACGTCTAG,-0.166 ± 0.072
4,CCTGGCTC,-0.0466 ± 0.012
5,AGTGACCG,0.103 ± 0.0031
6,ACTCACGG,0.061 ± 0.057
7,ACCGTGGA,0.11 ± 0.02
8,CAGTAAGA,-0.207 ± 0.047
9,CCGACGAA,0.0782 ± 0.019
10,AGTGGTGC,0.178 ± 0.005
11,AGGTGAGC,0.2602 ± 0.00092
12,ACCCCCTG,0.0826 ± 0.062
13,GCCTGACC,-0.0747 ± 0.025
14,GTCAACCA,0.0318 ± 0.012
15,ATGACGAC,0.143 ± 0.035
16,ACTAAACA,0.00628 ± 0.024
17,CGTCATTA,-0.0133 ± 0.08
18,AACCAACA,0.0701 ± 0.037
19,ATCATCCC,-0.109 ± 0.0033
20,CGTTTATC,0.102 ± 0.038
21,ATAGTGGG,-0.0426 ± 0.049
22,ACCACGCG,0.162 ± 0.0086
23,CGCGTGGA,0.109 ± 0.06
24,CGTGGCAG,0.0343 ± 0.083
25,GTTAGGGA,-0.0922 ± 0.023

row,Sequence,PBM E-score of 8-mer
1,AGCATTTG,-0.0807 ± 0.036
2,AAAGAAGG,-0.217 ± 0.067
3,GCGAAAGC,0.158 ± 0.02
4,AGTACAGG,-0.0815 ± 0.027
5,ATAATGTC,-0.19 ± 0.052
6,CCGTAACA,0.182 ± 0.035
7,CGGCTGGC,-0.0499 ± 0.019
8,ACTTCCAA,-0.225 ± 0.051
9,ATGCACAT,-0.0918 ± 0.012
10,ATTTGTCA,0.216 ± 0.09
11,ATGTAAGA,-0.246 ± 0.0067
12,ACACGACG,0.0924 ± 0.0099
13,AATCAAGT,-0.126 ± 0.041
14,AACTATGT,0.131 ± 0.026
15,ACTAGAAT,-0.192 ± 0.017
16,CCGGGGAG,-0.189 ± 0.0083
17,ACCAGGGA,-0.0386 ± 0.15
18,GTGACTCA,0.121 ± 0.012
19,ACCACCTG,0.224 ± 0.037
20,GCAGTCAC,0.179 ± 0.028
21,CAAACCGC,0.074 ± 0.0091
22,ACGCGCAA,0.0442 ± 0.065
23,CACTCATA,0.207 ± 0.023
24,CGATGCCA,0.0144 ± 0.043
25,AATTGTTG,0.136 ± 0.032

row,Sequence,PBM E-score of 8-mer
1,GATAAAGA,-0.139 ± 0.08
2,ACAGATTG,-0.0832 ± 0.063
3,AAGGGCTC,-0.154 ± 0.066
4,AATTTGGA,-0.1059 ± 0.00062
5,CAAAGTAA,-0.108 ± 0.025
6,ACTTCAAA,-0.0914 ± 0.02
7,ACCCTTCG,-0.0732 ± 0.09
8,ACCAATGC,0.0269 ± 0.028
9,CCATCCGG,-0.192 ± 0.0032
10,CGATATAA,-0.0143 ± 0.07
11,CCGGAAAA,-0.101 ± 0.066
12,AGAATTGG,-0.23 ± 0.045
13,GTAGGCAC,0.112 ± 0.058
14,CTACACAG,-0.144 ± 0.03
15,AACGATTC,0.0869 ± 0.055
16,ACTTTCGG,0.045 ± 0.018
17,CAAGTCGG,-0.105 ± 0.075
18,CCGGATAG,-0.162 ± 0.0085
19,ACCAAAAG,0.0114 ± 0.014
20,AATGCAGC,-0.173 ± 0.0037
21,GGGGCATA,-0.336 ± 0.034
22,ACCGAGTG,0.0189 ± 0.044
23,TCATAAGA,-0.22 ± 0.029
24,TACATCCA,-0.115 ± 0.036
25,CGCGGTAC,-0.0515 ± 0.057

row,Sequence,PBM E-score of 8-mer
1,AGGCTGCG,0.0335 ± 0.049
2,CCTGGGCC,-0.362 ± 0.011
3,TAATTTCA,-0.0596 ± 0.11
4,CCAGTAAA,-0.142 ± 0.026
5,AGTATTCA,-0.114 ± 0.037
6,TCATCCCA,0.0944 ± 0.017
7,GACTCTAA,-0.0677 ± 0.044
8,CGACCGGA,0.0332 ± 0.012
9,GTGGAAGA,-0.211 ± 0.058
10,TATTGAGA,-0.0845 ± 0.055
11,CCTTTAAG,-0.174 ± 0.049
12,ACCGGCGG,-0.0895 ± 0.043
13,CGGCCGAC,0.00933 ± 0.033
14,ACAGAGAA,0.0136 ± 0.033
15,CTAGGTGC,0.3603 ± 0.003
16,ACTGGCGG,-0.00448 ± 0.055
17,GTAAGTCA,-0.148 ± 0.015
18,CGAAAAAG,-0.0669 ± 0.07
19,ACGCCCGA,0.214 ± 0.026
20,ACTTCCCA,0.202 ± 0.005
21,GCATCAAC,0.0313 ± 0.0088
22,AAAATTTA,-0.179 ± 0.11
23,CCTGTAAG,0.0754 ± 0.081
24,ACTAGTCA,0.189 ± 0.03
25,CTCGCATA,0.0738 ± 0.076

row,Sequence,PBM E-score of 8-mer
1,AAGGGTTG,-0.117 ± 0.0043
2,AAATATCA,-0.0706 ± 0.014
3,CCCGATAC,0.0106 ± 0.0078
4,GTGCCAAA,0.403 ± 0.0099
5,AAGTTACC,-0.142 ± 0.0075
6,CTACGAAC,0.0573 ± 0.075
7,CCGGCCCA,-0.147 ± 0.024
8,ATACAGAT,-0.177 ± 0.038
9,TCTGAACA,-0.119 ± 0.0055
10,ATGGTCTA,-0.0902 ± 0.063
11,CCAATAGG,-0.088 ± 0.028
12,CTATTAGA,-0.162 ± 0.058
13,GAAACGTC,-0.067 ± 0.017
14,AGAGTGAT,0.231 ± 0.039
15,CTTTAACA,0.204 ± 0.1
16,GTTAATTA,0.0378 ± 0.084
17,ATGTTCTC,0.0714 ± 0.043
18,CTACTTTC,-0.0311 ± 0.045
19,AGCCGGGA,-0.156 ± 0.0034
20,ATGTCAGC,0.023 ± 0.03
21,ACGGTTCT,0.08 ± 0.05
22,CGCGGCGA,0.204 ± 0.055
23,AACGGACG,-0.089 ± 0.047
24,CCGCATTA,-0.134 ± 0.023
25,ATACCCTC,-0.0914 ± 0.02

row,Sequence,PBM E-score of 8-mer
1,ATCGAGTA,-0.0793 ± 0.074
2,AGTTATGA,-0.0946 ± 0.04
3,CTTTGTGC,-0.0738 ± 0.051
4,TCCACTCA,-0.145 ± 0.028
5,GTGTGCGA,0.361 ± 0.0042
6,CGGTCGAC,0.0829 ± 0.043
7,GTTGAGGA,0.00811 ± 0.06
8,AAAATAAA,-0.257 ± 0.03
9,ATTCAAAA,-0.277 ± 0.063
10,TGATGCCA,0.12 ± 0.029
11,CGGTTGTA,-0.027 ± 0.0043
12,CGGCGAAC,0.0367 ± 0.014
13,ACGAACTA,-0.0707 ± 0.021
14,CTCTTCAA,-0.023 ± 0.0061
15,GATTTTCC,-0.00302 ± 0.027
16,AAACTGAC,-0.0478 ± 0.047
17,TCGGTCCA,-0.315 ± 0.033
18,GTACTGTA,-0.2033 ± 0.0011
19,ATGGCGAC,0.0707 ± 0.0012
20,ACTAATAG,0.0429 ± 0.0011
21,AAGCTCCG,-0.224 ± 0.016
22,AGCGAAGA,0.106 ± 0.019
23,AAACACAG,-0.0414 ± 0.022
24,TCGTCAAA,0.168 ± 0.0098
25,CCCGTTAC,-0.0493 ± 0.068

row,Sequence,PBM E-score of 8-mer
1,CTACGGTA,-0.194 ± 0.07
2,CGGGGTGC,0.233 ± 0.02
3,CCTGCTTA,0.0754 ± 0.039
4,CTGCTGTA,-0.108 ± 0.03
5,GAGATGTA,-0.173 ± 0.009
6,GAAGAAGA,-0.225 ± 0.13
7,AAACTGCT,0.109 ± 0.05
8,ATCCCCTC,-0.0282 ± 0.014
9,CGTACGAA,0.127 ± 0.017
10,CTTGTTAA,0.257 ± 0.053
11,AACTGCCT,0.069 ± 0.005
12,AAACTGTC,0.161 ± 0.016
13,AACTGGCG,0.138 ± 0.019
14,CTACCTAG,0.0574 ± 0.051
15,AAGGTAAT,-0.0476 ± 0.02
16,CGAGGGAC,-0.0656 ± 0.053
17,GATGTCGA,0.138 ± 0.021
18,CTAAGCCC,-0.294 ± 0.052
19,AATATTTC,0.0628 ± 0.051
20,AGTTTGCG,0.0593 ± 0.054
21,TAGGAGCA,-0.084 ± 0.065
22,CTGCCCTA,-0.145 ± 0.0092
